Some of the results follow.

For one test, the system named is HSkMC. In words: cytotoxicity call (relative viability < 0.9). Particulars: 10 µM.
A further test concerns HepG2. Briefly: cytotoxicity call (relative viability < 0.9). Particulars: 10 µM.
A further test concerns S. aureus RN4220. In words: growth inhibition call (relative growth <= 0.2). As to conditions: 50 µM.

As to `COCC(=O)Nc1ccc2c(c1)C(=O)N(C)C[C@@H](OC)[C@H](C)CN(C(=O)c1ccccc1F)[C@H](C)CO2`, the cytotoxicity call in the test with HSkMC and with HepG2 was “inactive” throughout. Also, the growth inhibition call in the test with S. aureus RN4220 is “inactive”.

`C[C@@H]1CN([C@H](C)CO)C(=O)c2cc(NS(=O)(=O)c3ccc(F)cc3)ccc2O[C@@H](C)CCCCO[C@H]1CN(C)Cc1ccccc1`: the cytotoxicity call with HSkMC and in the test with HepG2 was “inactive” in each case. Besides, in the test on S. aureus RN4220, the growth inhibition call is “inactive”.

For the molecule `COc1ccc2c(c1)/C(=N\O)C(=O)N2`, the cytotoxicity call in the test on HSkMC and in the test on HepG2 was “inactive” throughout. The growth inhibition call in the test on S. aureus RN4220 is “inactive”.

`COc1ccccc1CN(C)C[C@@H]1OCc2ccccc2-c2c(n(C)c3ccccc23)C(=O)N([C@@H](C)CO)C[C@H]1C`: the cytotoxicity call in the test on HSkMC and in the test on HepG2 was “inactive” throughout. For the same molecule, the growth inhibition call in the test with S. aureus RN4220 was “inactive”.

Regarding `C[C@@H]1CCCCO[C@@H](CN(C)Cc2ccncc2)[C@H](C)CN([C@H](C)CO)C(=O)c2cc(NC(=O)CCC(F)(F)F)ccc2O1`, the cytotoxicity call in the test with HSkMC and in the test with HepG2 was “inactive” each time. In addition, the growth inhibition call in the test on S. aureus RN4220 is “inactive”.

As to `Cc1ccc(S(=O)(=O)Nc2ccc3c(c2)CC(=O)N([C@H](C)CO)C[C@H](C)[C@H](CN(C)C(=O)NC(C)C)O3)cc1`, the cytotoxicity call in the test on HSkMC and with HepG2 was “inactive” throughout. Also, the growth inhibition call in the test with S. aureus RN4220 is “inactive”.

As to `CC(C)NC(=O)Nc1ccc2c(c1)C(=O)N([C@@H](C)CO)C[C@H](C)[C@H](CN(C)Cc1ccc(Oc3ccccc3)cc1)O2`, the cytotoxicity call with HSkMC and in the test with HepG2 was “inactive” each time. The growth inhibition call with S. aureus RN4220 is “inactive”.

For `O=C(O)[C@H]1NC(=O)[C@@H]1Cc1ccccc1`, the cytotoxicity call in the test with HSkMC and with HepG2 was “inactive” in each case. The growth inhibition call in the test on S. aureus RN4220 was “inactive”.

In the case of `C[C@H](CO)N1C[C@H](C)[C@H](CN(C)C(=O)C2CCCCC2)OCCCC[C@H](C)Oc2ccc(NC(=O)NC3CCCCC3)cc2C1=O`, the cytotoxicity call with HSkMC is “inactive”. For the same molecule, the cytotoxicity call with HepG2 was “active”. In addition, the growth inhibition call with S. aureus RN4220 was “inactive”.

With `Cc1noc(C)c1NC(=O)N(C)C[C@@H]1OCCCC[C@H](C)Oc2ccc(NS(=O)(=O)c3ccccc3)cc2C(=O)N([C@@H](C)CO)C[C@H]1C`, the cytotoxicity call with HSkMC and in the test on HepG2 was “inactive” in each case. Also, the growth inhibition call with S. aureus RN4220 was “inactive”.

As to `C[C@H]1CN([C@@H](C)CO)C(=O)c2cccc(NS(=O)(=O)c3cn(C)cn3)c2O[C@H]1CN(C)Cc1ccc(C(=O)Nc2ccccc2N)cc1`, the cytotoxicity call in the test on HSkMC and in the test on HepG2 was “inactive” each time. Moreover, in the test with S. aureus RN4220, the growth inhibition call is “inactive”.

For `COc1ccc(S(=O)(=O)Nc2cccc3c2O[C@H](CN(C)S(=O)(=O)c2ccc(OC)cc2)[C@H](C)CN([C@H](C)CO)C3=O)cc1`, the cytotoxicity call in the test on HSkMC and with HepG2 was “inactive” each time. The growth inhibition call in the test with S. aureus RN4220 was “inactive”.

Consider `O=C(C[C@@H]1CC[C@H](NC(=O)c2ccc(F)cc2)[C@H](CO)O1)NCc1ccncn1`, for which the cytotoxicity call with HSkMC and in the test on HepG2 was “inactive” in each case. In the test with S. aureus RN4220, the growth inhibition call was “inactive”.

Take `COc1ccc(NC(=O)Nc2ccc3c(c2)C(=O)N([C@H](C)CO)C[C@@H](C)[C@H](CN(C)Cc2ccncc2)OCCCC[C@@H](C)O3)cc1`: the cytotoxicity call in the test with HSkMC and in the test on HepG2 was “inactive” in each case. In the test on S. aureus RN4220, the growth inhibition call is “inactive”.

Regarding `Cc1noc(C)c1NC(=O)N(C)C[C@H]1Oc2c(NC(=O)C3CCOCC3)cccc2C(=O)N([C@@H](C)CO)C[C@@H]1C`, the cytotoxicity call in the test on HSkMC and in the test on HepG2 was “inactive” throughout. The growth inhibition call in the test on S. aureus RN4220 is “inactive”.

Take `C[C@@H]1CN([C@H](C)CO)C(=O)Cc2cc(NC(=O)Cn3cnnn3)ccc2O[C@H]1CN(C)S(C)(=O)=O`: the cytotoxicity call with HSkMC and in the test on HepG2 was “inactive” throughout. Moreover, the growth inhibition call in the test on S. aureus RN4220 is “inactive”.

As to `C[C@H]1CCCCO[C@H](CN(C)C(=O)NC2CCCCC2)[C@@H](C)CN([C@@H](C)CO)C(=O)c2cc(NS(=O)(=O)c3cccs3)ccc2O1`, the cytotoxicity call in the test with HSkMC and in the test on HepG2 was “inactive” each time. Moreover, in the test with S. aureus RN4220, the growth inhibition call was “inactive”.

`CO[C@H]1CN(C)C(=O)c2cc(NS(C)(=O)=O)ccc2OC[C@H](C)N(S(C)(=O)=O)C[C@H]1C`: the cytotoxicity call in the test with HSkMC and in the test with HepG2 was “inactive” each time. Also, the growth inhibition call in the test with S. aureus RN4220 was “inactive”.

In the case of `C[C@H]1CCCCO[C@H](CN(C)Cc2ccccc2)[C@@H](C)CN([C@@H](C)CO)C(=O)c2cc(NS(=O)(=O)c3cccs3)ccc2O1`, the cytotoxicity call with HSkMC and with HepG2 was “inactive” each time. Also, the growth inhibition call in the test with S. aureus RN4220 was “inactive”.

Turning to `O=C(/C=C/c1ccc(O)c(O)c1)O[C@H]([C@H](OC(=O)/C=C/c1ccc(O)c(O)c1)[C@H](OC(=O)/C=C/c1ccc(O)c(O)c1)C(=O)O)[C@@H](OC(=O)/C=C/c1ccc(O)c(O)c1)C(=O)O`, the cytotoxicity call with HSkMC and in the test on HepG2 was “inactive” in each case. For the same molecule, the growth inhibition call with S. aureus RN4220 was “inactive”.

`C[C@H]1CCCCO[C@H](CN(C)C(=O)Nc2cccc3ccccc23)[C@@H](C)CN([C@@H](C)CO)C(=O)c2cc(NC(=O)C3CCCCC3)ccc2O1`: the cytotoxicity call in the test on HSkMC and in the test with HepG2 was “inactive” in each case. Besides, the growth inhibition call in the test with S. aureus RN4220 was “inactive”.

As to `C[C@@H]1CN([C@@H](C)CO)C(=O)c2cccc(NC(=O)c3nc4ccccc4s3)c2O[C@@H]1CN(C)Cc1ccc(Oc2ccccc2)cc1`, the cytotoxicity call with HSkMC and in the test with HepG2 was “inactive” in each case. Moreover, in the test on S. aureus RN4220, the growth inhibition call was “inactive”.

Regarding `OCc1cccnc1`, the cytotoxicity call with HSkMC and with HepG2 was “inactive” each time. In the test on S. aureus RN4220, the growth inhibition call was “inactive”.

Regarding `Cl.N=C(N)NC(=N)N1CCOCC1`, the cytotoxicity call in the test on HSkMC and in the test on HepG2 was “inactive” throughout. Moreover, in the test with S. aureus RN4220, the growth inhibition call is “inactive”.

Turning to `C[C@H](CO)N1C[C@H](C)[C@H](CN(C)Cc2ccc(Cl)c(Cl)c2)Oc2ccc(NC(=O)C3CCCCC3)cc2CC1=O`, the cytotoxicity call in the test on HSkMC (human skeletal muscle cells) and in the test with HepG2 was “inactive” each time. Besides, the growth inhibition call with S. aureus RN4220 was “inactive”.

Turning to `C[C@H](CO)N1C[C@H](C)[C@H](CN(C)C(=O)Nc2ccc3c(c2)OCO3)OCc2cn(nn2)CCCC1=O`, the cytotoxicity call in the test with HSkMC and in the test on HepG2 was “inactive” each time. In addition, the growth inhibition call with S. aureus RN4220 is “inactive”.

Consider `O=C(O)c1ccc(S(=O)(=O)N(Cc2ccc(OC(F)(F)F)cc2)c2ncc(C(F)(F)F)cc2Cl)cc1`, for which the cytotoxicity call with HSkMC and with HepG2 was “inactive” in each case. In addition, in the test on S. aureus RN4220, the growth inhibition call was “active”.

These data come from the antibiotic and cytotoxicity screens of Wong et al. (2023).
